The other results are listed elsewhere or left out.
system: PF3D7_0420300 AP2 domain 1 (GST-tagged); test: gcPBM binding intensity (ln(normalized median fluorescence intensity)); higher = stronger DNA binding
Outline: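 Using an Agilent 4 × 180k array, primer-extended double-stranded 36-bp intergenic genomic probes and negative controls were exposed for 1 h to GST-fused P. falciparum DNA-binding domains expressed in E. coli. Binding was carried out in 1× PBS with 1% milk, 0.2 mg/ml BSA, 0.5% salmon testes DNA and 0.03% Triton X-100, and protein was detected with Alexa488 anti-GST antibody and a 488 nm scan. Binding intensity is the highest Masliner-normalised natural-log median intensity across replicate spots of either probe orientation.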

Sequence	gcPBM binding intensity (ln)
AATTATTAAATATGTACACACGTACATTTTATAAAT [CACACA_site5341]	9.25
AGTACATTATAGAATACACACCTATATATATATATA [CACACA_site4447]	9.45
TATTTTGTTCTTTCCACACACAAATACATATATTGT [CACACA_site4071]	9.69
TAATACATACACACATGTACATACAGAAATAAATAA [XGTACX_site3245]	9.62
AATATAAAAATGTTTACACACACACGGAAATATATT [CACACA_site7226]	10.1
ATGTTGTACAAACACACACACAAAAAAAAAATAAAA [CACACA_site2406]	9.89
ATATATATATGTGGATGTACATATATCTCTTATTAT [XGTACX_site1748]	9.27
GGAAAATGAAAACAAGGTACACATAAGAACAAACAA [XGTACX_site1221]	9.96
AATAGGGTCATTCAAAAAAAAAAAAAATAATAATAC [CACACA_negctrl_site644]	9.22
AAATTTGCTTTACCAGTGCAAAAAAAAAAAAAAAAA	8.81
AAATCACATAAAAATAGTACTTTTTTTTTTTTTTTT [XGTACX_site2696]	9.14
TGTTTTTATCCTTATGGTACAGTATAATACTTACAG [XGTACX_site6381]	9.24
ATTGTAAGGAAACACACACACATATATATGTATATA [CACACA_site676]	9.98
AAATAAATACTAGGCACACACACATATATATATATA [CACACA_site2079]	9.87
TATATGTTTAATTTCACACACAAATATGCATTTTAA [CACACA_site7881]	9.53
ATTATTGTAATATTAGCACACATTACCTCACTACAA [CACACA_site2560]	9.46
ATTATTCAGGTAAAGTGTACAGGAGAAAAATAAAAT [XGTACX_site334]	9.67
ATATATATATATATATGTACGTATAATATATATATG [XGTACX_site2212]	9.33
CGCACCCAAATATATACACACATATATATATATATA [CACACA_site1651]	9.56
GGAAAATACATTCCAGTGCATTAATTTATTCAACGT	9.2
TTTTGGATCATTTGTTGTACATATGCAAAAAAAAAA [XGTACX_site3157]	8.89
AAAAAAATAAAATTATATAAAATAAATTTTTATAAT [GTGCAC_negctrl_site587]	8.97
TATGATACATAATATACATGCATACACAACATTCAG [TGCATGCA_site487]	9.39

Sequence	gcPBM binding intensity (ln)
GATATGTGACGTTTGGTATTTTTGATGTTGGTAGGA [CACACA_negctrl_site1448]	9.69
TAAAAGAAATATACATGTACATAAATATATATATAT [XGTACX_site1276]	9.38
TATATTTGGAAATATTCTCAATTGGTACAAATAAAA [CACACA_negctrl_site1202]	8.94
GCCCAACCAAAATATACACACAGTTGAATGAATAAA [CACACA_site2597]	9.37
ATTTTTTTGTGTTTGGTACACACGTTATAAAAAATA [CACACA_site1345]	9.3
TTGGTAATAATTTGAGGTACACTGTATAAATTTTTT [XGTACX_site909]	9.1
TTTTTTTCTTAAAGATGTACTTTTTTAAAATAATCT [XGTACX_site3663]	8.85
AATAATAAATTATGGTGTACGCATTTGTATATATAC [XGTACX_site5417]	9.38
TTTTTTTTTTTTTTGGTGCGTTTATATATAAATATA	9.07
GGAATTATATGAAATAAACACACATATGTAATATTA [CACACA_site8586]	9.33
TACATCGACCTATGTACATGCAAATTATTTTTATTT [TGCATGCA_site182]	9.39
AAAATCTAATATAATGCACACATAAAAAAAAAATCA [CACACA_site8871]	9.49
CTTTTAATATGTGTAGTGCATTTTTTTTTTTTTTTT [GTGCAC_site9727]	9.39
AAAAAAAAAAAAAACACACACAACACCCATACCTTA [CACACA_site3621]	9.76
GTCCTTCATCATATTTAACACACAGAGAAAAAGCGG [CACACA_site7979]	9.49
TTTATATATTATTAATGTACAAAATTTTTATTGCAT [XGTACX_site3329]	8.94
TAAATACAGAAACACACACACAAATATATACATACA [CACACA_site2880]	10.1
AATTCTTTTTTCAACACACACACACTAGAAAATATA [CACACA_site5681]	9.93
ACATTAAGACACATTGCACACGTGCACCCATAGAAA [CACACA_site8029]	9.43
ACCTGGACAAAAATAAATAAATAAATAAATAAATGA [GTGCAC_negctrl_site238]	9.19
CATCCTATTACTTGGTGTACTATTTTATATTGAATA [XGTACX_site1050]	9.58
ATAAATTTATCCAAGTGTACAAAGCTAACATTTTTT [XGTACX_site4399]	9.28

Source: the supplement of paper PMC11417369
